Source: the supplement of paper PMC3334620
The full ranking holds about 33,000 sequences; the median of “E-score (-0.5 to 0.5)” is about -0.016, and the highest 2% start at about 0.32. The list shows a part of the results.

target: T1, Stp1 (UniProt B3LFK1); assay: PBM E-score (8-mer binding enrichment) (E-score (-0.5 to 0.5)); higher = stronger / more preferred TF binding; most listed sequences are background and not binding sites; conditions: protein concentration: 200 nM; construct: GST-full length
T1 sequence: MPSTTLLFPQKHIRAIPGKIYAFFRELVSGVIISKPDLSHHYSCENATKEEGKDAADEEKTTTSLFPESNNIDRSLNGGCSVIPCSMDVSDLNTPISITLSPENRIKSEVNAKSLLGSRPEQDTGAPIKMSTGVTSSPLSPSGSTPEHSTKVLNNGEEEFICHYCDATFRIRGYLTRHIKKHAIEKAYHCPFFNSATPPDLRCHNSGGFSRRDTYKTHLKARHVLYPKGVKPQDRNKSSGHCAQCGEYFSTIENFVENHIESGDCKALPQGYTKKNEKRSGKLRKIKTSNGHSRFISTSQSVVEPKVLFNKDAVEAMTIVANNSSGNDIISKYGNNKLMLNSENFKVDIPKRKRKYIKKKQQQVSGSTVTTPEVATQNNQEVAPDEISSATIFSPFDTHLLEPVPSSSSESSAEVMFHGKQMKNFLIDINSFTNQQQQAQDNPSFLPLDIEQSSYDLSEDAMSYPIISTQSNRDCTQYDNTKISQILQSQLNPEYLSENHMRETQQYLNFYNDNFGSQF
Description: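 Universal 'all 10-mer' protein binding microarrays (Agilent AMADID 015681) probed with GST-tagged S. cerevisiae TFs (full-length or DBD) made by in vitro transcription/translation (PURExpress), about 100-200 nM. Bound TF was detected with fluorescent anti-GST. Each ungapped 8-mer (which stands for itself and its reverse complement) is scored by the PBM enrichment score (E-score), a modified Wilcoxon-Mann-Whitney statistic from -0.5 to +0.5, computed with the Universal PBM Analysis Suite. Scale: above 0.35 generally sequence-specific binding.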

Row | Sequence | PBM E-score
1 | CTCAATTC | 0.0345
2 | CTCACGAG | -0.111
3 | AGAGGTTC | -0.0312
4 | CGAGTTAC | 0.11
5 | GCGAAACA | 0.122
6 | ACCATTGC | -0.0584
7 | GGTGTTAA | 0.0826
8 | GCCGGTCA | -0.102
9 | CGTTGTAA | -0.0631
10 | ACCCTGGC | -0.233
11 | GTAAGATA | 0.21
12 | CACATTGA | 0.134
13 | ATATGGTA | 0.0227
14 | AACGTAGT | -0.00602
15 | GCTAAGCA | 0.0427
16 | GGACGAAC | 0.0901
17 | CCGAATAC | 0.173
18 | AAATAATG | 0.253
19 | CCAAGCAC | 0.0645
20 | GCCCGAGA | 0.0368
21 | CAACTTTA | 0.0616
22 | GAAACGGC | 0.462
23 | ACTACATC | -0.0415
24 | CTCGTCAC | 0.0658
25 | ATATACAA | 0.232

Row | Sequence | PBM E-score
26 | GATCACAA | 0.0964
27 | TATCAAAA | 0.0528
28 | CCGAGAGC | -0.267
29 | CTAACCTC | -0.236
30 | GAGGCCCC | -0.125
31 | AGGCCCAT | -0.277
32 | AAAGGAAC | 0.0797
33 | GCGCCCAA | 0.119
34 | TCTATAGA | -0.185
35 | GCGAAACC | 0.132
36 | ACGGGTAA | 0.0689
37 | CAGCTTGG | 0.026
38 | GCATGGCA | 0.375
39 | CACCGCAC | 0.0298
40 | AAAAGCAG | -0.0815
41 | GGTGATAC | -0.158
42 | TATCGTAA | 0.134
43 | ACCGCGTC | 0.117
44 | AAAGGTTA | -0.132
45 | ACCGCCGC | 0.389
46 | ATTAGCAA | 0.116
47 | TATCTTAA | 0.133
48 | ATTATCAC | 0.153
49 | AATACGTA | 0.124
50 | CCAGATGA | -0.0204

Row | Sequence | PBM E-score
51 | TAGGTCCA | 0.0253
52 | ACGGGAGC | 0.00476
53 | CACAGCAG | 0.0685
54 | ATAAGGAC | 0.114
55 | CAACGGTA | -0.266
56 | ACACGTGC | 0.197
57 | CTGCGTAC | 0.00614
58 | CTGGCACC | -0.0921
59 | CCCAAGCC | 0.0564
60 | AATCGATT | 0.0938
61 | CAGCCACA | 0.161
62 | GGGGGCGA | -0.303
63 | CATGAACG | 0.0341
64 | AGTCTCAC | 0.027
65 | GGCCTTTA | -0.0181
66 | GTGGCCAA | -0.126
67 | AACCACAT | 0.114
68 | GAAGTAGC | -0.145
69 | GATGGGGA | -0.217
70 | CGCTAGGA | -0.0128
71 | ACCTGCGT | -0.0439
72 | ATCAGTCC | -0.294
73 | GGGTTGAA | -0.173
74 | CGCATACG | 0.127
75 | CCTTAAGG | 0.173

Row | Sequence | PBM E-score
76 | ACTTGATG | 0.034
77 | ACAAAATC | 0.0644
78 | CGAGTAGA | -0.0226
79 | TAAAGGCA | 0.237
80 | ACAAAAGT | 0.0775
81 | AAGGGACG | -0.071
82 | GGGAATCA | -0.0809
83 | CAAAGCCG | 0.316
84 | CCAGGTAA | -0.00283
85 | AACTAATA | 0.222
86 | CCGTGTCC | 0.297
87 | ACGTATCA | 0.0537
88 | CCAGGTAC | -0.0869
89 | AACCTGCC | -0.0866
90 | CGGAGAAA | -0.0217
91 | CAGCAGAC | 0.0423
92 | CAGCGCCG | 0.446
93 | CCCCTTCG | -0.161
94 | GCACATAA | 0.0278
95 | CAAAGTCC | -0.0255
96 | TATGTGAA | -0.117
97 | GCCTAACC | -0.159
98 | AGATCAAG | 0.00406
99 | AAGGTTCG | -0.0246
100 | GTTGGCAA | 0.0689

Row | Sequence | PBM E-score
101 | TAGAGTAA | 0.163
102 | TCCGTTAA | 0.154
103 | CTTATGTC | -0.0503
104 | CGGTTCCC | -0.147
105 | CTCCAGAC | -0.0753
106 | GGGACAAA | -0.155
107 | CAACCGCC | 0.0188
108 | TAGGTTAA | -0.0178
109 | CTATAGCC | -0.136
110 | CGGTGCAC | 0.0116
111 | ACTATTCA | 0.132
112 | ATCCGGTG | 0.0054
113 | CATGGCCC | -0.149
114 | CCGTATAC | 0.221
115 | CCGAGACA | -0.0488
116 | AAGCGCTT | 0.0783
117 | CTAATTAG | 0.0953
118 | GCACAAGC | 0.0702
119 | AGGGGCCC | -0.143
120 | CACGATCC | 0.00499
121 | AGAGCTAC | -0.11
122 | ATTCAGAA | 0.0953
123 | CGGCACTC | 0.365
124 | CCGAAGGA | -0.0869
125 | ATACACGG | 0.25

Row | Sequence | PBM E-score
126 | AGCGGATG | -0.0707
127 | GACTTTCA | -0.217
128 | GACAACCC | -0.173
129 | AAATGATA | 0.146
130 | ATGTAAAT | 0.104
131 | CTGTCCGC | 0.0634
132 | TGATAGCA | 0.0459
133 | ACAACCGT | -0.0345
134 | GAGAGACC | -0.191
135 | TACATCTA | 0.0374
136 | ACGTCCGC | 0.134
137 | ACTCGAAA | -0.0173
138 | ATAAACTA | 0.202
139 | ACGAGTCG | 0.00615
140 | CGAAGGAG | -0.0226
141 | CGTAACAA | 0.18
142 | ACATGGCC | 0.147
143 | ACAACCTA | -0.164
144 | TTGACCAA | 0.06
145 | ACATAGCT | -0.212
146 | ATTCTGTC | -0.00835
147 | AATGTCAC | 0.136
148 | CGCTTTAA | 0.0115
149 | GTCTCTGA | 0.046
150 | ACCATTAG | -0.024

Row | Sequence | PBM E-score
151 | GTAATACA | 0.04
152 | ATATTGAC | -0.165
153 | AAGCCCCT | -0.287
154 | TCACTTAA | -0.02
155 | GCTATTAA | 0.183
156 | GGAATACC | -0.213
157 | AGAAAACC | -0.0487
158 | CCCGGTCA | -0.287
159 | GCACATGA | -0.122
160 | GTTGTCAA | 0.09
161 | CTCTTTAC | 0.0569
162 | ACTTGACA | -0.0811
163 | CAAGCGGC | 0.466
164 | GACGCGGC | 0.466
165 | ACTACGGC | 0.359
166 | CGACGTTA | 0.118
167 | ACACAACA | 0.00352
168 | AATGTTTC | -0.0414
169 | AATGGATG | -0.09
170 | ACAGGTAA | -0.0174
171 | AATTTGGT | 0.0871
172 | ATGCTCCG | -0.0916
